{
  "source": "the supplement of paper PMC8728848",
  "binders": {"B1": {"name": "SefD (Salmonella enterica), Q9L6K6 (protein)", "chain": "GAYIIRGQNNSAHKLRIRIGGEDWQPDNSGIGMVSHSDFTNEFNIYYFGNGDIPVDTYLISIYATEIEL"}},
  "test_in_all_cases": "glycan array binding signal (z-score within array); higher = stronger binding",
  "settings_in_all_cases": "glycan notation: IUPAC condensed, linker removed",
  "key": {"Fuc(a1-2)Gal": {"molecular_target": "Fuc(a1-2)Gal", "procedure,_shortened": "(§1)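 The binding signal is a Z-score computed within each array. Data were drawn from 3228 arrays in the Consortium for Functional Glycomics database, restricted to those with a known protein sequence. Scores were averaged over arrays of the same protein sequence at different concentrations or buffers, and over linkers, and negative values can be taken as non-binding.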"}, "Fuc(a1-2)Gal(b1-3)GalNAc": {"molecular_target": "Fuc(a1-2)Gal(b1-3)GalNAc", "procedure,_shortened": "as §1"}, "[1]": {"molecular_target": "Fuc(a1-2)Gal(b1-3)GalNAc(a1-3)[Fuc(a1-2)]Gal(b1-4)Glc", "procedure,_shortened": "as §1"}, "[2]": {"molecular_target": "Fuc(a1-2)Gal(b1-3)GalNAc(a1-3)[Fuc(a1-2)]Gal(b1-4)GlcNAc", "procedure,_shortened": "as §1"}, "[3]": {"molecular_target": "Fuc(a1-2)Gal(b1-3)GalNAc(b1-3)Gal", "procedure,_shortened": "as §1"}, "[4]": {"molecular_target": "Fuc(a1-2)Gal(b1-3)GalNAc(b1-3)Gal(a1-4)Gal(b1-4)Glc", "procedure,_shortened": "as §1"}, "[5]": {"molecular_target": "Fuc(a1-2)Gal(b1-3)GalNAc(b1-4)[Neu5Ac(a2-3)]Gal(b1-4)Glc", "procedure,_shortened": "as §1"}, "Fuc(a1-2)Gal(b1-3)GlcNAc": {"molecular_target": "Fuc(a1-2)Gal(b1-3)GlcNAc", "procedure,_shortened": "as §1"}, "[6]": {"molecular_target": "Fuc(a1-2)Gal(b1-3)GlcNAc(b1-2)Man(a1-3)[Fuc(a1-2)Gal(b1-3)GlcNAc(b1-2)Man(a1-6)]Man(b1-4)GlcNAc(b1-4)GlcNAc", "procedure,_shortened": "as §1"}, "[7]": {"molecular_target": "Fuc(a1-2)Gal(b1-3)GlcNAc(b1-2)Man(a1-3)[Fuc(a1-2)Gal(b1-3)GlcNAc(b1-2)Man(a1-6)]Man(b1-4)GlcNAc(b1-4)[Fuc(a1-6)]GlcNAc", "procedure,_shortened": "as §1"}, "[8]": {"molecular_target": "Fuc(a1-2)Gal(b1-3)GlcNAc(b1-3)Gal(b1-4)Glc", "procedure,_shortened": "as §1"}, "[9]": {"molecular_target": "Fuc(a1-2)Gal(b1-3)GlcNAc(b1-3)GalNAc", "procedure,_shortened": "as §1"}, "[10]": {"molecular_target": "Fuc(a1-2)Gal(b1-3)GlcNAc(b1-3)[Fuc(a1-3)[Gal(b1-4)]GlcNAc(b1-6)]Gal(b1-4)Glc", "procedure,_shortened": "as §1"}, "[11]": {"molecular_target": "Fuc(a1-2)Gal(b1-3)GlcNAc(b1-3)[Gal(b1-4)GlcNAc(b1-6)]Gal(b1-4)Glc", "procedure,_shortened": "as §1"}, "[12]": {"molecular_target": "Fuc(a1-2)Gal(b1-3)GlcNAc(b1-3)[Neu5Ac(a2-6)Gal(b1-4)GlcNAc(b1-6)]Gal(b1-4)Glc", "procedure,_shortened": "as §1"}, "[13]": {"molecular_target": "Fuc(a1-2)Gal(b1-3)[Fuc(a1-4)]GlcNAc", "procedure,_shortened": "as §1"}, "[14]": {"molecular_target": "Fuc(a1-2)Gal(b1-3)[Fuc(a1-4)]GlcNAc(b1-2)Man(a1-3)[Fuc(a1-2)Gal(b1-3)[Fuc(a1-4)]GlcNAc(b1-2)Man(a1-6)]Man(b1-4)GlcNAc(b1-4)GlcNAc", "procedure,_shortened": "as §1"}, "[15]": {"molecular_target": "Fuc(a1-2)Gal(b1-3)[Fuc(a1-4)]GlcNAc(b1-3)[Fuc(a1-3)[Gal(b1-4)]GlcNAc(b1-6)]Gal(b1-4)Glc", "procedure,_shortened": "as §1"}, "[16]": {"molecular_target": "Fuc(a1-2)Gal(b1-3)[Fuc(a1-4)]GlcNAc(b1-3)[Gal(b1-4)GlcNAc(b1-6)]Gal(b1-4)Glc", "procedure,_shortened": "as §1"}, "Fuc(a1-2)Gal(b1-4)Glc": {"molecular_target": "Fuc(a1-2)Gal(b1-4)Glc", "procedure,_shortened": "as §1"}, "Fuc(a1-2)Gal(b1-4)Glc6S": {"molecular_target": "Fuc(a1-2)Gal(b1-4)Glc6S", "procedure,_shortened": "as §1"}, "Fuc(a1-2)Gal(b1-4)GlcNAc": {"molecular_target": "Fuc(a1-2)Gal(b1-4)GlcNAc", "procedure,_shortened": "as §1"}, "[17]": {"molecular_target": "Fuc(a1-2)Gal(b1-4)GlcNAc(b1-2)Man(a1-3)[Fuc(a1-2)Gal(b1-4)GlcNAc(b1-2)Man(a1-6)]Man(b1-4)GlcNAc(b1-4)GlcNAc", "procedure,_shortened": "as §1"}, "[18]": {"molecular_target": "Fuc(a1-2)Gal(b1-4)GlcNAc(b1-2)Man(a1-3)[Fuc(a1-2)Gal(b1-4)GlcNAc(b1-2)Man(a1-6)]Man(b1-4)GlcNAc(b1-4)[Fuc(a1-6)]GlcNAc", "procedure,_shortened": "as §1"}, "[19]": {"molecular_target": "Fuc(a1-2)Gal(b1-4)GlcNAc(b1-2)[Fuc(a1-2)Gal(b1-4)GlcNAc(b1-4)]Man(a1-3)[Fuc(a1-2)Gal(b1-4)GlcNAc(b1-2)Man(a1-6)]Man(b1-4)GlcNAc(b1-4)GlcNAc", "procedure,_shortened": "as §1"}, "[20]": {"molecular_target": "Fuc(a1-2)Gal(b1-4)GlcNAc(b1-3)Gal(b1-4)GlcNAc", "procedure,_shortened": "as §1"}, "[21]": {"molecular_target": "Fuc(a1-2)Gal(b1-4)GlcNAc(b1-3)Gal(b1-4)GlcNAc(b1-3)Gal(b1-4)GlcNAc", "procedure,_shortened": "as §1"}, "[22]": {"molecular_target": "Fuc(a1-2)Gal(b1-4)GlcNAc(b1-3)GalNAc", "procedure,_shortened": "as §1"}, "[23]": {"molecular_target": "Fuc(a1-2)Gal(b1-4)GlcNAc(b1-3)[Fuc(a1-2)Gal(b1-4)GlcNAc(b1-6)]GalNAc", "procedure,_shortened": "as §1"}, "[24]": {"molecular_target": "Fuc(a1-2)Gal(b1-4)GlcNAc6S", "procedure,_shortened": "as §1"}},
  "note": "The other results are listed elsewhere or left out.",
  "data": [
    {"binder": "B1", "values": [
      {"measurement": "glycan array binding signal (z-score)", "setting": "Fuc(a1-2)Gal", "result": 0.146},
      {"measurement": "glycan array binding signal (z-score)", "setting": "Fuc(a1-2)Gal(b1-3)GalNAc", "result": -0.293},
      {"measurement": "glycan array binding signal (z-score)", "setting": "[1]", "result": -0.357},
      {"measurement": "glycan array binding signal (z-score)", "setting": "[2]", "result": -0.464},
      {"measurement": "glycan array binding signal (z-score)", "setting": "[3]", "result": -0.267},
      {"measurement": "glycan array binding signal (z-score)", "setting": "[4]", "result": 0.329},
      {"measurement": "glycan array binding signal (z-score)", "setting": "[5]", "result": -0.236},
      {"measurement": "glycan array binding signal (z-score)", "setting": "Fuc(a1-2)Gal(b1-3)GlcNAc", "result": -0.291},
      {"measurement": "glycan array binding signal (z-score)", "setting": "[6]", "result": -0.486},
      {"measurement": "glycan array binding signal (z-score)", "setting": "[7]", "result": 0.025},
      {"measurement": "glycan array binding signal (z-score)", "setting": "[8]", "result": -0.094},
      {"measurement": "glycan array binding signal (z-score)", "setting": "[9]", "result": -0.491},
      {"measurement": "glycan array binding signal (z-score)", "setting": "[10]", "result": -0.271},
      {"measurement": "glycan array binding signal (z-score)", "setting": "[11]", "result": -0.595},
      {"measurement": "glycan array binding signal (z-score)", "setting": "[12]", "result": -0.16},
      {"measurement": "glycan array binding signal (z-score)", "setting": "[13]", "result": -0.37},
      {"measurement": "glycan array binding signal (z-score)", "setting": "[14]", "result": -0.362},
      {"measurement": "glycan array binding signal (z-score)", "setting": "[15]", "result": 0.119},
      {"measurement": "glycan array binding signal (z-score)", "setting": "[16]", "result": 5.83},
      {"measurement": "glycan array binding signal (z-score)", "setting": "Fuc(a1-2)Gal(b1-4)Glc", "result": -0.593},
      {"measurement": "glycan array binding signal (z-score)", "setting": "Fuc(a1-2)Gal(b1-4)Glc6S", "result": -0.26},
      {"measurement": "glycan array binding signal (z-score)", "setting": "Fuc(a1-2)Gal(b1-4)GlcNAc", "result": 0.74},
      {"measurement": "glycan array binding signal (z-score)", "setting": "[17]", "result": 0.118},
      {"measurement": "glycan array binding signal (z-score)", "setting": "[18]", "result": -0.414},
      {"measurement": "glycan array binding signal (z-score)", "setting": "[19]", "result": -0.171},
      {"measurement": "glycan array binding signal (z-score)", "setting": "[20]", "result": -0.349},
      {"measurement": "glycan array binding signal (z-score)", "setting": "[21]", "result": -0.043},
      {"measurement": "glycan array binding signal (z-score)", "setting": "[22]", "result": -0.352},
      {"measurement": "glycan array binding signal (z-score)", "setting": "[23]", "result": -0.26},
      {"measurement": "glycan array binding signal (z-score)", "setting": "[24]", "result": -0.184}
    ]}
  ]
}
